{"source": "paper PMC6588435", "about": "(Cell chemical biology, 2019)", "biological_target": "Mtb FDTS (Mycobacterium tuberculosis, UniProt P9WG57)", "sequence (P9WG57 whole entry)": "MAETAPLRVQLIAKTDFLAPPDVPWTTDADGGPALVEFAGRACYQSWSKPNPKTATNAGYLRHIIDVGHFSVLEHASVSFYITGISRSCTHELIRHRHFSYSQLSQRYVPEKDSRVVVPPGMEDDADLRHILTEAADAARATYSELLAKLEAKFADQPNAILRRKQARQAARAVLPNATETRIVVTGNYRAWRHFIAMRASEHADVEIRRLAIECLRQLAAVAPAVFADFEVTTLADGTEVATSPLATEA", "assay": "Mtb FDTS NADPH oxidation assay", "assay_type": "biochemical", "settings": "read-out: inhibition of NADPH oxidation activity of Mtb FDTS", "data": [{"compound": "CN(Cc1cnc2nc(N)nc(N)c2n1)c1ccc(C(=O)N[C@@H](CCC(=O)O)C(=O)O)cc1", "note": "[MTX, Methotrexate]", "values": [{"measurement": "inhibition at 200 µM", "value": "~50", "unit": "%"}]}]}
